Source: PubChem BioAssay AID652104 (National Center for Advancing Translational Sciences (NCATS), 2013)
Out of some 410,000 compounds screened, about 7,200 (1.8%) were called active. This list was built around the results that the source calls inconclusive (neither active nor inactive); the mix of calls is not that of the screen. The call rests on the fitted dose curve; in most records, active means well fitted activation curve with a large enough effect; inconclusive means small, poorly fitted or top-dose-only effect, or another doubt; inactive means no such curve, though single readings can be large or run the other way. No potency is given beside an inconclusive call; the fits are too rough.

Assay: qHTS of TDP-43 Inhibitors; further: nearly all actives have a fitted effect of over 50% in size
Settings: TDP-43 expressing yeast growth rescue, BacTiter-Glo, 24 h; series mostly up to 46.1 µM
Method in brief: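 Cell-based yeast growth screen: TDP-43 expression induced in galactose, inoculum OD600=0.02 after raffinose pregrowth to mid-log. Read-out BacTiter-Glo luminescence at 24 hr, 30 deg C; inhibition of toxicity seen as signal increase.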
Potency means the concentration at half of the fitted maximal effect; tags describe the fitted curve by direction and shape.

SMILES | Potency
COc1ccc(Cl)cc1NC(=O)CN(C)C(=O)CCSc1ccc(C)cc1 | inconclusive [activator, single point]
COc1ccccc1/C=C1/C(=O)N(c2cc(C)cc(C)c2)C(c2cccc([N+](=O)[O-])c2)S1(=O)=O (centres undefined) | active: 11.2 µM
CCOC(=O)CSc1nnc(NCC(=O)OC)c(=O)[nH]1 | inactive
Cc1occc1C(=O)N1CCN(c2ccc(Cl)cc2)CC1 | active: 10 µM
Cc1ccc(S(=O)(=O)CCc2nnc(NC(=O)C3CCCO3)s2)cc1 (centres undefined) | inconclusive [activator, full curve, poor fit]
Cc1noc(C)c1COc1cccc(C(=O)Nc2ccc(C#N)cc2)c1 | active: 14.1 µM
CCc1c(C)c2ccc(OC(C)C(=O)NC(Cc3c[nH]c4ccc(O)cc34)C(=O)O)c(C)c2oc1=O (centres undefined) | inconclusive [activator, full curve, poor fit]
COc1ccc(C(C)=O)cc1COC(=O)c1cccc(N(C)C)c1 | inconclusive [activator, partial curve]
CC(=O)Nc1cc(-c2cccc(F)c2)cn2c(-c3ccccc3)cnc12 | inconclusive [activator, single point]
O=c1oc2ccccc2n1Cc1ccccc1Cl | inconclusive [activator, partial curve]
CCNC(=O)COc1ccc(/C=C2\COc3ccccc3C2=O)cc1OC | inconclusive [activator, single point]
Cc1cc(C)cc(NC(=S)NCc2ccc3c(c2)OCO3)c1 | inconclusive [activator, partial curve]
COc1ccccc1NC(=S)N(CCc1c(C)[nH]c2ccccc12)Cc1cccs1 | inconclusive [activator, full curve, poor fit]
CC(C)(C)c1ccc(C(=O)NC2(C(F)(F)F)C(=O)Nc3c2c(=O)[nH]c(=O)n3-c2ccccc2)cc1 (centres undefined) | inactive
O=C(NCc1ccccc1)c1nc(S(=O)(=O)Cc2ccccc2)ncc1Cl | active: 10 µM
CN1CCc2nc3sc(C(=O)Nc4ccccc4OC(F)(F)F)c(N)c3cc2C1 | active: 17.8 µM
O=C(CSC1=NNC(c2ccccn2)S1)Nc1cccc(Cl)c1 (centres undefined) | inconclusive [activator, single point]
O=C(NNC(=O)c1ccc(Cl)cc1Cl)c1csc(-c2cccnc2)n1 | inactive
Cc1cccc(NC(=O)C(C)Oc2ccccc2C)n1 (centres undefined) | inconclusive [activator, single point]
COc1ccc([N+](=O)[O-])cc1NC(=S)NC(C)=O | inactive
NC(=O)N\N=C/C=C/C=C/c1ccc(F)cc1 | inactive
CCOC(=O)c1c(C)[nH]c(C)c1S(=O)(=O)N(C)CC(=O)Nc1ccc(C)c(N(C)C)c1 | inactive

SMILES | Potency
Cc1cc2c(NCCc3ccccc3)ncnc2s1 | inconclusive [activator, single point]
CC(C)(C)NC(=O)C(c1ccc(C(F)(F)F)cc1)n1c(=O)c(-c2cc3ccccc3[nH]2)nc2ccccc21 (centres undefined) | inconclusive [activator, full curve, poor fit]
Cc1nc(SC(C)C)[nH]c(=O)c1Cc1ccccc1 | inconclusive [activator, single point]
Cc1ccc2ccccc2c1C(O)c1ncc(-c2cccc(C(F)(F)F)c2)[nH]1 (centres undefined) | inconclusive [activator, full curve, poor fit]
Cc1ccc(S(=O)(=O)NC(C(=O)Oc2cc3oc(=O)cc(C)c3cc2Cl)C(C)C)cc1 (centres undefined) | inconclusive [activator, partial curve]
Cc1cc(N2CCOCC2)n2ncc(-c3ccc(Cl)cc3)c2n1 | inactive
O=c1oc(-c2cccc([N+](=O)[O-])c2)nc2ccccc12 | inconclusive [activator, single point]
CCn1cc(C(=O)NCc2ccc3c(c2)OCO3)c(=O)c2cc(F)c(N3CCN(C(=O)c4ccco4)CC3)cc21 | inactive
O=C(COC(=O)c1nc(Cl)ccc1Cl)NC1CCCCCC1 | inconclusive [activator, single point]
O=[N+]([O-])c1nn(-c2ccc(Cl)cc2)n(O)c1=NCc1ccccc1Cl | inconclusive [activator, single point]
COc1ccc(N2C(=O)C(Cl)=C(Oc3cccc(OC)c3)C2=O)cc1 | inconclusive [activator, single point]
O=C(C(=O)N1CCN(c2ccccc2)CC1)c1ccco1 | inconclusive [activator, partial curve]
Cc1ccc(NC(=O)Cn2cnc(C(=O)Nc3ccc(C)c(C)c3)n2)cc1C | inconclusive [activator, full curve, poor fit]
O=C(NC(=S)NCc1ccco1)c1ccc([N+](=O)[O-])cc1 | inconclusive [activator, single point]
CN(C)/C=N/c1ncc(C(=O)c2ccccc2)s1 | inconclusive [activator, single point]
COCCCNC(=O)CSc1nc2ccc(N3CCOCC3)cc2c(=O)n1CCc1ccccc1 | inconclusive [activator, partial curve, poor fit]
Cc1cc(C)nc(NC(=O)/C=C/c2ccccc2Cl)c1 | active: 12.6 µM
CCCc1noc(-c2ccc(-c3ccccc3)cc2)n1 | inconclusive [activator, single point]
CC1CCCCN1C(=O)c1cc(Cl)ccc1[N+](=O)[O-] (centres undefined) | inconclusive [activator, partial curve]
COc1ccc(-c2nc(C)c(CCNC(=O)C(=O)Nc3cc(C)cc(C)c3)s2)cc1OC | inactive
CC1Cc2cc(S(=O)(=O)N3CCN(c4ccccc4F)CC3)ccc2N1C(=O)C1CC1 (centres undefined) | inconclusive [activator, partial curve]
O=C(c1ccco1)N1CCC(c2nc(-c3ccc(F)cc3)no2)CC1 | inactive
